{"source": "PubChem BioAssay AID903", "about": "(National Center for Advancing Translational Sciences (NCATS), 2007)", "note": "About 340 (0.62%) of roughly 55,000 compounds were called active. Inconclusive results, whose numbers are uncertain, are shown with a selection of clear calls. Calls come from the whole dose curve; as a rule, active = well fitted cell-killing curve with a large enough effect; inconclusive = small, poorly fitted or top-dose-only effect; inactive = no such curve, though single readings can be large or run the other way. Where the call is inconclusive, the potency comes from a doubtful curve fit. Potency is the fitted concentration of half-maximal effect; tags give direction and shape of the fitted curve."}
{"experiment": "qHTS Screen for Compounds that Selectively Target Cancer Cells with p53 Mutations: Cytotoxicity of p53 Null Cells at the Permissive Temperature; note: nearly all actives have a fitted effect of over 55% in size", "conditions": "H1299-neo p53 null cells, ATP luminescence, 24 h, 32C; series mostly up to 46.1 µM; activity change, negative = cytotoxicity: at the top concentration", "procedure,_shortened": "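ATP-content luminescence in p53-null H1299-neo cells after 24 h compound exposure (up to 46 uM) at 32C permissive temperature; 0% and 100% killing set by DMSO and 100 uM tamoxifen; Hill-equation AC50.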"}
{"molecule": "Cc1ccc(Cn2c(C)c3cnn(CC(=O)O)c(=O)c3c2C)cc1", "Potency": "inconclusive: 0.01 µM [cytotoxic, full curve, poor fit]"}
{"molecule": "COc1ccc(C)cc1NC(=O)c1sc2nc(-c3ccc(F)cc3)cn2c1C", "Potency": "inconclusive: 35.5 µM [cytotoxic, single point]"}
{"molecule": "CCOc1ccccc1Nc1nc2ccccc2nc1NS(=O)(=O)c1ccc(Cl)cc1", "activity change, negative = cytotoxicity": "inactive: -10%"}
{"molecule": "CCN(CC)CCNC(=O)c1ccc(-c2nc(CN3CCc4ccccc43)c(C)o2)cc1", "activity change, negative = cytotoxicity": "inactive: 13.2%"}
{"molecule": "Cc1ccc(CN2c3ccccc3-c3nc(SCC(=O)NCCc4ccccc4)ncc3S2(=O)=O)cc1", "activity change, negative = cytotoxicity": "inactive: -0.793%"}
{"molecule": "CCc1ccc(Nc2nc3c(S(=O)(=O)c4ccc(C)cc4)nnn3c3ccsc23)cc1", "activity change, negative = cytotoxicity": "inactive: 6.9%"}
{"molecule": "Cc1ccc2nc(-c3cccc(NC(=O)CSc4ccc(Cl)cc4)c3)oc2c1", "Potency": "inconclusive: 20 µM [cytotoxic, single point]"}
{"molecule": "COc1cc2nc(SCC(=O)Nc3ccccc3C)n3nc(CCn4c(C)nc5ccccc54)nc3c2cc1OC", "Potency": "inconclusive: 31.6 µM [cytotoxic, single point]"}
{"molecule": "Cc1ccc(CNC(=O)c2ccc(Cn3c(SCc4ccc(F)cc4)nc4cccnc43)cc2)o1", "Potency": "inconclusive: 12.6 µM [cytotoxic, partial curve]"}
{"molecule": "O=c1n(Cc2ccc(F)cc2)c2ccccc2c2nc(-c3ccccc3)nn12", "Potency": "inconclusive: 3.98 µM [cytotoxic, single point]"}
{"molecule": "Cc1ccccc1/C=C1\\CCCc2ccccc2C1=O", "Potency": "inconclusive: 22.4 µM [cytotoxic, single point]"}
{"molecule": "Cc1ccccc1CSc1nc2c(sc3ccccc32)c(=O)n1CCCC(=O)NCCCOC(C)C", "activity change, negative = cytotoxicity": "inactive: -1.06%"}
{"molecule": "CCOc1ccc(-c2nnc(-c3ccccc3)o2)cc1", "Potency": "inconclusive: 22.4 µM [cytotoxic, single point]"}
{"molecule": "COc1ccccc1C(=O)Oc1c(Sc2ccccc2)c(C)nn1-c1ccccc1", "Potency": "inconclusive: 31.6 µM [cytotoxic, single point]"}
{"molecule": "COc1cc(OC)cc(C(=O)Nc2ccc3nc4n(c(=O)c3c2)CCCCC4)c1", "Potency": "inconclusive: 15.8 µM [cytotoxic, partial curve]"}
{"molecule": "Cc1ccc(C)c(N2CCN(CCCNC(=O)c3cnn(-c4ccccc4)c3C3CCN(C(=O)OC(C)(C)C)CC3)CC2)c1", "Potency": "inconclusive: 31.6 µM [cytotoxic, single point]"}
{"molecule": "CCCCC(=O)Nc1ccc(OCc2cc(=O)n3c(C)csc3n2)cc1", "Potency": "inconclusive: 3.98 µM [cytotoxic, partial curve]"}
{"molecule": "Cc1cc(C)cc(Nc2cc(C(=O)NCCCN(C)C3CCCCC3)c3ccccc3n2)c1", "Potency": "inconclusive: 25.1 µM [cytotoxic, single point]"}
{"molecule": "CCn1c(C(=O)NCc2ccccc2Br)cc2oc3ccccc3c21", "Potency": "inconclusive: 5.62 µM [cytotoxic, full curve, poor fit]"}
{"molecule": "Cc1ccc(Cc2cn3cc(-c4ccccc4)nc3s2)cc1", "Potency": "inconclusive: 3.55 µM [cytotoxic, full curve]"}
{"molecule": "CCN(CC)S(=O)(=O)c1ccc2c(c1)c(=O)c(C(=O)NCc1ccccc1Cl)cn2C", "Potency": "inconclusive: 31.6 µM [cytotoxic, single point]"}
{"molecule": "O=C(CSc1c2c(nc3cc(Cl)ccc13)CCCC2)N1CCN(c2ccccc2)CC1", "Potency": "inconclusive: 35.5 µM [cytotoxic, single point]"}
{"molecule": "COc1ccc(-n2ncc3c(NCC(C)C)ncnc32)cc1", "Potency": "inconclusive: 11.2 µM [cytotoxic, partial curve]"}
{"molecule": "CC1CCN(S(=O)(=O)c2ccc3c(c2)N(CC(=O)N2CCN(c4ccccc4)CC2)C(=O)CO3)CC1", "activity change, negative = cytotoxicity": "inactive: 7.54%"}
{"molecule": "Cc1cc(C)n(-c2nnc(Nc3cc(Cl)ccc3C)c3ccccc23)n1", "activity change, negative = cytotoxicity": "inactive: 1.73%"}
{"molecule": "O=C(Nc1ccccc1F)c1ccc(-c2ccccc2)s1", "Potency": "inconclusive: 7.94 µM [cytotoxic, partial curve]"}
{"molecule": "O=C(NCC(c1cccnc1)N1CCc2ccccc2C1)C(=O)Nc1ccccc1", "note": "(stereo unspecified)", "activity change, negative = cytotoxicity": "inactive: 1.91%"}
{"molecule": "Cc1noc(-c2ccc(N3CCC(C)CC3)c([N+](=O)[O-])c2)n1", "Potency": "inconclusive: 15.8 µM [cytotoxic, partial curve]"}
{"molecule": "CCC(Sc1nc2nccnc2c(=O)n1Cc1ccc(F)cc1)C(=O)NC1CCCCC1", "note": "(stereo unspecified)", "activity change, negative = cytotoxicity": "inactive: -1.72%"}
{"molecule": "CCc1ccc(S(=O)(=O)Nc2cccc(-c3ccc(N4CCC(C)CC4)nn3)c2)s1", "Potency": "active: 10 µM"}
{"molecule": "Cc1cccc(-c2nc(CCNC(=O)c3ccco3)cs2)c1", "Potency": "inconclusive: 5.62 µM [cytotoxic, single point]"}
{"molecule": "Cc1ccc2ncc(C(=O)NCCc3ccc(S(N)(=O)=O)cc3)c(=O)n2c1", "activity change, negative = cytotoxicity": "inactive: 3.76%"}
{"molecule": "CCn1nnc(NC(=O)c2sc3ccccc3c2Cl)n1", "Potency": "inconclusive: 11.2 µM [cytotoxic, partial curve]"}
{"molecule": "Clc1ccc2c(c1)[C@H]1OCC[C@H]1[C@@H](c1ccco1)N2", "Potency": "inconclusive: 12.6 µM [cytotoxic, partial curve]"}
{"molecule": "Cc1ccc(O)c(NC(=O)c2noc3c2CCCCC3)c1", "Potency": "active: 12.6 µM"}
{"molecule": "COc1cccc(-n2cc(C(=O)Oc3cccc(C(F)(F)F)c3)c3ccccc3c2=O)c1", "Potency": "inconclusive: 5.01 µM [cytotoxic, single point]"}
{"molecule": "CCn1c(=N)c(C(=O)NC2CCCCC2)cc2c(=O)n3cccc(C)c3nc21", "activity change, negative = cytotoxicity": "inactive: 2.78%"}
{"molecule": "Cc1cc(OCC(=O)Nc2cc(-c3nc4ccccc4[nH]3)ccc2C)ccc1Cl", "Potency": "inconclusive: 35.5 µM [cytotoxic, single point]"}
{"molecule": "O=S(=O)(Nc1cccc(-c2ccc(N3CCCCCC3)nn2)c1)c1ccccc1F", "Potency": "inconclusive: 12.6 µM [cytotoxic, single point]"}
{"molecule": "Cc1oc2ncn(C)c(=O)c2c1C(=O)Nc1ccccn1", "Potency": "inconclusive: 5.62 µM [cytotoxic, single point]"}
{"molecule": "O=C(CN1C(=O)COc2ccc(S(=O)(=O)N3CCOCC3)cc21)N1CCN(c2cccc(C(F)(F)F)c2)CC1", "Potency": "inconclusive: 35.5 µM [cytotoxic, single point]"}
{"molecule": "Cc1ccnc(N/N=C/c2ccccc2)n1", "Potency": "inconclusive: 11.2 µM [cytotoxic, partial curve]"}
{"molecule": "Cc1ccc(-n2ncc3c(N4CCN(C)CC4)ncnc32)cc1", "Potency": "inconclusive: 12.6 µM [cytotoxic, partial curve]"}
{"molecule": "O=C(N/N=C/c1c[nH]c2ccccc12)c1cc(-c2ccc3ccccc3c2)n[nH]1", "Potency": "inconclusive: 28.2 µM [cytotoxic, single point]"}
{"molecule": "COc1ccccc1/C=N/Nc1nncc2ccccc12", "Potency": "inconclusive: 7.94 µM [cytotoxic, partial curve]"}
{"molecule": "COc1ccc(OC)c(CCNc2nc3cc(OC)c(OC)cc3c3nc(-c4cccnc4)nn23)c1", "Potency": "inconclusive: 0.02 µM [cytotoxic, full curve]"}
{"molecule": "CC1=C(C(=O)Nc2ccccc2)C(c2ccc(F)cc2)n2nc(SCc3cc(C)ccc3C)nc2N1", "note": "(stereo unspecified)", "activity change, negative = cytotoxicity": "inactive: -8.02%"}
{"molecule": "CCOC(=O)N1CCN(Cc2nc3cc(NC(=O)CC(C)C)ccc3n2C(C)C)CC1", "activity change, negative = cytotoxicity": "inactive: 7.05%"}
{"molecule": "CCOC(=O)c1ccccc1NC(=O)c1sc2ncn(CC)c(=O)c2c1C", "activity change, negative = cytotoxicity": "inactive: -4.42%"}
{"molecule": "COc1ccc(CCNC(=O)Cn2c(-c3cccs3)cc3cc(F)ccc32)cc1OC", "Potency": "inconclusive: 35.5 µM [cytotoxic, single point]"}
{"molecule": "CCc1ccccc1NC(=O)C(CCSC)NS(=O)(=O)c1ccc2c(c1)oc(=O)n2C", "note": "(stereo unspecified)", "Potency": "inconclusive: 35.5 µM [cytotoxic, single point]"}
{"molecule": "COc1ccc(Nc2oc(-c3ccc(COc4ccc(OC)cc4)o3)nc2C#N)cc1", "activity change, negative = cytotoxicity": "inactive: -11.9%"}
{"molecule": "CCC(C)NC(=O)C1CCN(C(=O)c2cc3sccc3n2Cc2ccc(Cl)cc2)CC1", "note": "(stereo unspecified)", "activity change, negative = cytotoxicity": "inactive: 19.7%"}
{"molecule": "CCCC(=O)Oc1c(Sc2ccc(Cl)cc2)c(C)nn1-c1ccccc1", "Potency": "inconclusive: 12.6 µM [cytotoxic, partial curve]"}
{"molecule": "CC(C)S(=O)(=O)c1oc(-c2ccc(F)cc2)nc1S(=O)(=O)c1ccc(F)cc1", "Potency": "inconclusive: 35.5 µM [cytotoxic, single point]"}
{"molecule": "O=C(c1ccc(CSc2nc3ccncc3n2Cc2ccccc2F)cc1)N1CCCCCC1", "activity change, negative = cytotoxicity": "inactive: -25.1%"}
{"molecule": "CC1CCN(S(=O)(=O)c2ccc3c(c2)N(CC(=O)N2CCN(c4ccc(Cl)cc4)CC2)C(=O)CO3)CC1", "Potency": "inconclusive: 6.31 µM [cytotoxic, single point]"}
{"molecule": "CC(C)NC(=S)N1CCN(S(C)(=O)=O)CC1", "activity change, negative = cytotoxicity": "inactive: -2.79%"}
{"molecule": "CCOc1ccc2nc(N3CCCC(C(=O)NCc4ccc(OC)cc4)C3)sc2c1", "note": "(stereo unspecified)", "Potency": "inconclusive: 20 µM [cytotoxic, partial curve]"}
{"molecule": "CCOC(=O)N1CCc2c(sc(NCc3cccs3)c2C(=O)Nc2cc(OC)ccc2OC)C1", "activity change, negative = cytotoxicity": "inactive: 22.7%"}
{"molecule": "COc1cccc(C(=O)NC(c2ccc(Cl)cc2)c2cc(Cl)c3cccnc3c2O)c1", "note": "(stereo unspecified)", "Potency": "inconclusive: 0.631 µM [cytotoxic, full curve]"}
{"molecule": "CCCC(=O)Nc1cccc(-c2nc3cc(C)c(C)cc3o2)c1C", "Potency": "inconclusive: 1.78 µM [cytotoxic, full curve, poor fit]"}
{"molecule": "COc1cc(Br)cc(/C=N/NC(=O)Cc2ccc(C(F)(F)F)cc2[N+](=O)[O-])c1O", "Potency": "inconclusive: 5.62 µM [cytotoxic, single point]"}
{"molecule": "Cc1csc2nc(-c3cccc(NC(=O)c4ccccc4F)c3)cn12", "Potency": "inconclusive: 12.6 µM [cytotoxic, partial curve]"}
{"molecule": "COc1cc(-c2nc3cnccn3c2Nc2ccc(C(C)C)cc2)ccc1O", "Potency": "inconclusive: 25.1 µM [cytotoxic, single point]"}
{"molecule": "CC(C)(C)c1ccc(S(=O)(=O)N2CCC(c3ccncc3)CC2)cc1", "Potency": "inconclusive: 15.8 µM [cytotoxic, partial curve, poor fit]"}
